Experimental findings from a collection of fitness landscapes (doi:10.1126/science.1257360) are described below.

The list shows a part of the results.

B1: PhoQ; a variant is named by its letters at X, in order, P23837 (parent)
chain: MKKLLRLFFPLSLRVRFLLATAAVVLVLSLAYGMVALIGYSVSFDKTTFRLLRGESNLFYTLAKWENNKLHVELPENIDKQSPTMTLIYDENGQLLWAQRDVPWLMKMIQPDWLKSNGFHEIEADVNDTSLLLSGDHSIQQQLQEVREDDDDAEMTHSVAVNVYPATSRMPKLTIVVVDTIPVELKSSYMVWSWFIYVLSANLLLVIPLLWVAAWWSLRPIEALAKEVRELEEHNRELLNPATTRELTSLVRNLNRLLKSERERYDKYRTTLTDLTHSLKTPLXXLQXXLRSLRSEKMSVSDAEPVMLEQISRISQQIGYYLHRASMRGGTLLSRELHPVAPLLDNLTSALNKVYQRKGVNISLDISPEISFVGEQNDFVEVMGNVLDNACKYCLEFVEISARQTDEHLYIVVEDDGPGIPLSKREVIFDRGQRVDTLRPGQGVGLAVAREITEQYEGKIVAGESMLGGARMEVIFGRQHSAPKDE

The test covers variants of B1. Kind of test: enrichment ratio after two sorts for PhoP signalling (ratio (wild type AVST 3.29)); higher = more functional. The following applies: with PhoP (E. coli).
As for LPGK, the enrichment ratio was at most 0.25.

For SYPC, the enrichment ratio was at most 0.25.

Turning to DCMV, the enrichment ratio was at most 0.25.

For INMQ, the enrichment ratio is at most 0.25.

For the variant VAED, the enrichment ratio is at most 0.25.

In the case of TLHT, the enrichment ratio was at most 0.25.

For MSFS, the enrichment ratio is 2.8.

In the case of PEPK, the enrichment ratio is at most 0.25.

For ITLR, the enrichment ratio is at most 0.25.

For PPYW, the enrichment ratio is at most 0.25.

For ITPS, the enrichment ratio was at most 0.25.

Consider WYHI, for which the enrichment ratio was at most 0.25.

Turning to EDKS, the enrichment ratio is at most 0.25.

On to QDMP, for which the enrichment ratio was at most 0.25.

Turning to IPGL, the enrichment ratio is at most 0.25.

For the variant FLTR, the enrichment ratio is at most 0.25.

IHYV: the enrichment ratio was at most 0.25.

With MYCE, the enrichment ratio was at most 0.25.

As to FISN, the enrichment ratio is at most 0.25.

As to RLQD, the enrichment ratio was at most 0.25.

As for MSYS, the enrichment ratio came out at 7.31.

For MHFS, the enrichment ratio is at most 0.25.

For the variant PAMG, the enrichment ratio is at most 0.25.

As for EWLS, the enrichment ratio is at most 0.25.

Take ISAC: the enrichment ratio is at most 0.25.

As for GFAN, the enrichment ratio is at most 0.25.

TTWM: the enrichment ratio stood at 1.91.

For the variant STKQ, the enrichment ratio was at most 0.25.

As to IVVM, the enrichment ratio is at most 0.25.

For AART, the enrichment ratio is at most 0.25.

Take KIGD: the enrichment ratio is at most 0.25.

On to ICHT, for which the enrichment ratio is at most 0.25.

Consider RVSG, for which the enrichment ratio is at most 0.25.

Regarding AAHN, the enrichment ratio is at most 0.25.

As to NPGF, the enrichment ratio was at most 0.25.

Turning to HNIK, the enrichment ratio was at most 0.25.

As for QCKC, the enrichment ratio is at most 0.25.

MKNN: the enrichment ratio is at most 0.25.

With MDSE, the enrichment ratio is at most 0.25.

Take YDND: the enrichment ratio is at most 0.25.

For PISE, the enrichment ratio is at most 0.25.

On to MLVP, for which the enrichment ratio is at most 0.25.

Consider PYCL, for which the enrichment ratio was at most 0.25.

SLAE: the enrichment ratio is 1.31.

LNCL: the enrichment ratio is at most 0.25.

Take EHNA: the enrichment ratio was at most 0.25.

For the variant GIMP, the enrichment ratio is at most 0.25.

Take VGPA: the enrichment ratio is at most 0.25.

In the case of RSPQ, the enrichment ratio is at most 0.25.

For FVWW, the enrichment ratio is at most 0.25.

Regarding IPKT, the enrichment ratio was at most 0.25.

For RMSP, the enrichment ratio is at most 0.25.

For the variant MRVH, the enrichment ratio is 0.437.

For the variant MCLL, the enrichment ratio came to 8.32.

As for FKHL, the enrichment ratio is at most 0.25.

ELPW: the enrichment ratio was at most 0.25.

Take TEKI: the enrichment ratio was at most 0.25.

As for HSTH, the enrichment ratio was at most 0.25.

IALY: the enrichment ratio was at most 0.25.

In the case of NMNI, the enrichment ratio is at most 0.25.

For the variant LVWQ, the enrichment ratio was at most 0.25.

As for RCPV, the enrichment ratio was at most 0.25.

Turning to LDGT, the enrichment ratio is at most 0.25.

As for PFMV, the enrichment ratio was at most 0.25.

As to STKV, the enrichment ratio was at most 0.25.

APLN: the enrichment ratio is at most 0.25.

On to TQCF, for which the enrichment ratio amounted to 0.891.

For the variant EDPA, the enrichment ratio is at most 0.25.

As to MPRH, the enrichment ratio was at most 0.25.

Take YCYH: the enrichment ratio is at most 0.25.

As to VIAW, the enrichment ratio is at most 0.25.

On to AWHA, for which the enrichment ratio was at most 0.25.

Turning to PAAI, the enrichment ratio was at most 0.25.

Turning to TYEQ, the enrichment ratio was at most 0.25.

As to STQQ, the enrichment ratio came out at 7.76.

As to LWAW, the enrichment ratio was at most 0.25.

Regarding QYNF, the enrichment ratio is at most 0.25.

Turning to TDGF, the enrichment ratio is at most 0.25.

For LDKA, the enrichment ratio was at most 0.25.

With NQPE, the enrichment ratio was at most 0.25.

Regarding RIAA, the enrichment ratio is at most 0.25.

For PHGH, the enrichment ratio is at most 0.25.

As to NICN, the enrichment ratio is at most 0.25.

Turning to TMEH, the enrichment ratio was at most 0.25.

As to HCIR, the enrichment ratio was at most 0.25.

Take FPSS: the enrichment ratio was at most 0.25.

On to TTPV, for which the enrichment ratio is at most 0.25.

In the case of VSWT, the enrichment ratio came out at 6.3.

As to REVL, the enrichment ratio was at most 0.25.

For PPEE, the enrichment ratio is at most 0.25.

For the variant IFYI, the enrichment ratio is at most 0.25.

As to AKVQ, the enrichment ratio turned out to be 2.82.

Consider PSPY, for which the enrichment ratio is at most 0.25.

As to LTAA, the enrichment ratio was at most 0.25.

As to LMCG, the enrichment ratio was at most 0.25.

As for YYWF, the enrichment ratio was at most 0.25.

As for GYIP, the enrichment ratio is at most 0.25.

In the case of MRWR, the enrichment ratio was at most 0.25.

On to GFCE, for which the enrichment ratio is at most 0.25.

Turning to QQQG, the enrichment ratio was at most 0.25.

For the variant WCWR, the enrichment ratio is at most 0.25.

On to TLDL, for which the enrichment ratio was at most 0.25.

On to FHII, for which the enrichment ratio is at most 0.25.

SDLH: the enrichment ratio is 3.78.

Regarding FNMV, the enrichment ratio amounted to 5.92.

Take TTKS: the enrichment ratio is at most 0.25.

For the variant PSHK, the enrichment ratio is at most 0.25.

As to EFMY, the enrichment ratio is at most 0.25.

As to IQAF, the enrichment ratio was at most 0.25.

In the case of DLIN, the enrichment ratio is at most 0.25.

For the variant DNFC, the enrichment ratio is at most 0.25.

On to RYCH, for which the enrichment ratio is at most 0.25.

With VFKC, the enrichment ratio is at most 0.25.

For DRSR, the enrichment ratio is at most 0.25.

Consider MWFL, for which the enrichment ratio is at most 0.25.

Take GIVV: the enrichment ratio was 11.3.

Regarding VLFM, the enrichment ratio is at most 0.25.

SQQI: the enrichment ratio worked out at 2.33.

Consider IQYY, for which the enrichment ratio was at most 0.25.

In the case of FCKH, the enrichment ratio is at most 0.25.

Consider ATHW, for which the enrichment ratio is at most 0.25.

With HKFI, the enrichment ratio was at most 0.25.

MMWT: the enrichment ratio is at most 0.25.

QYIG: the enrichment ratio was at most 0.25.

Take SFGV: the enrichment ratio was at most 0.25.

For the variant GTWR, the enrichment ratio was at most 0.25.

With FRGS, the enrichment ratio is at most 0.25.

Turning to HAYN, the enrichment ratio was at most 0.25.

As to PAQL, the enrichment ratio is at most 0.25.

For NLLQ, the enrichment ratio was at most 0.25.

Regarding DMMA, the enrichment ratio is at most 0.25.

For LPNC, the enrichment ratio is at most 0.25.

As to FRWG, the enrichment ratio was at most 0.25.

On to LRQK, for which the enrichment ratio was at most 0.25.

In the case of WWSC, the enrichment ratio is at most 0.25.

For ATRI, the enrichment ratio was at most 0.25.

In the case of IDCR, the enrichment ratio is at most 0.25.

As for YERS, the enrichment ratio is at most 0.25.

Turning to LGMH, the enrichment ratio was at most 0.25.

Regarding DIPD, the enrichment ratio was at most 0.25.

With SPTA, the enrichment ratio was at most 0.25.

In the case of IEAE, the enrichment ratio is at most 0.25.

RPNT: the enrichment ratio was at most 0.25.

As to QVNV, the enrichment ratio is at most 0.25.

Turning to PGQL, the enrichment ratio is at most 0.25.

Consider FPMA, for which the enrichment ratio is at most 0.25.

Turning to MSYK, the enrichment ratio is at most 0.25.

Consider LEPK, for which the enrichment ratio is at most 0.25.

With AFWC, the enrichment ratio was at most 0.25.

For ASGA, the enrichment ratio stood at 4.84.

Take SATI: the enrichment ratio turned out to be 8.13.

With LDFH, the enrichment ratio was 0.257.

In the case of MHMQ, the enrichment ratio is at most 0.25.
